From PubChem BioAssay AID504706 (National Center for Advancing Translational Sciences (NCATS), 2011)
Among all 320,000 compounds or so, about 200 (0.062%) were called active. Inconclusive means that the source gave no clear call. Such entries were picked first, then a sample of the others. Calls come from the whole dose curve; as a rule, active = well fitted activation curve with a large enough effect; inconclusive = small, poorly fitted or top-dose-only effect; inactive = no such curve, though single readings can be large or run the other way. Potencies of inconclusive entries are left out as doubtful fits.

Assay: qHTS assay for re-activators of p53 using a Luc reporter; note: nearly all actives have a fitted effect of over 45% in size
Details: H1299 p53-A138V BP100-luciferase reporter, luminescence, 24 h; series mostly up to 92.2 µM
In short: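 H1299 (p53-null), stable ts p53-A138V + BP100-Luc; 1000 cells/well, Opti-MEM/10% FBS; cpd 4 pt, 1:5; 24 h, 37 deg C, 5% CO2; detection reagent 10 min RT; luminescence.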
Potency is the fitted concentration of half-maximal effect; tags give direction and shape of the fitted curve.

Structure (SMILES)	Potency
O=C(O)c1cccc(N/N=C/c2ccc(-c3ccccc3)cc2)c1	inconclusive [activator, partial curve, poor fit]
CC(=O)c1c(C(C)=O)c(C)n(Cc2ccccc2)c1C	inactive
CN1c2ccccc2C(=O)/C(=C\Nc2ccc(F)cc2F)S1(=O)=O	inactive
COc1ccc(Cl)cc1S(=O)(=O)N(C)CC(=O)NCc1ccc2c(c1)OCO2	inactive
O=C(Nc1nc(-c2ccco2)cs1)c1ccccc1	inconclusive [activator, partial curve, poor fit]
COCCCNc1nc2ccccc2nc1NS(=O)(=O)c1ccc(Cl)cc1	inactive
Cc1cnc(C(=O)OCc2nc3ccccc3o2)cn1	inactive
O=C(NC(=S)Nc1ccc2cn[nH]c2c1)c1ccccc1	inconclusive [activator, partial curve, poor fit]
C[C@H](CO)N1C[C@H](C)[C@@H](CN(C)S(C)(=O)=O)Oc2ccc(NS(=O)(=O)c3cn(C)cn3)cc2C1=O	inactive
Cc1ccc(NC(=O)CN(C)S(=O)(=O)c2cccs2)cc1C	inconclusive [activator, partial curve, poor fit]
O=C(Nc1nc(N2C(=O)c3ccccc3C2=O)n(-c2ccccc2)n1)c1ccccc1	inconclusive [activator, partial curve, poor fit]
O=C(CN1Cc2ccccc2C1=O)Nc1ccc2c(c1)OCCO2	inconclusive [activator, partial curve, poor fit]
CCCc1[nH]n(-c2nc3ccccc3s2)c(=O)c1C=NCC1CCCO1 (configuration not stated)	inconclusive [activator, partial curve, poor fit]
Cc1cc(C(=O)COC(=O)c2ccc(O)cc2)c(C)n1Cc1ccco1	inconclusive [activator, full curve, poor fit]
Cn1c(CNc2ccc(Cl)cc2)nc2ccccc21	inconclusive [activator, partial curve, poor fit]
Cc1ccc(C(=O)Nc2ncc(Cc3ccccc3)s2)o1	inconclusive [activator, partial curve, poor fit]
CCn1ncc(CN2CCCC(C(=O)Nc3cccc(-c4cc5ccccc5[nH]4)c3)C2)c1C (configuration not stated)	inconclusive [activator, single point]
COc1ccc(NC(=O)/C=C/c2ccco2)cn1	inactive
O=C(Nc1nc(-c2cccs2)c(C(=O)C(F)(F)F)s1)c1ccccc1	inconclusive [activator, single point]
O=C(O)c1cccc(NC(=O)c2cn(-c3ccccc3)nc2-c2cc3ccccc3o2)c1	inconclusive [activator, single point]
COc1cccc2[nH]c3c(N4CCN(Cc5ccc6c(c5)OCO6)CC4)ncnc3c12	inactive
CC(C)CC(=O)Nc1ccc(-c2nc3ccccc3c(=O)[nH]2)cc1	inconclusive [activator, partial curve, poor fit]
O=c1c(-c2ccc(O)cc2)coc2cc(O)cc(O)c12	inconclusive [activator, full curve, poor fit]
O=C(Nc1ccc(CN2CCOCC2)cc1)c1ccccc1F	inconclusive [activator, full curve, poor fit]

Structure (SMILES)	Potency
Cc1ccc(C(=O)CC(=O)c2ccc(C)cc2O)cc1	inconclusive [activator, partial curve]
CC(=O)c1ccc(NC(=O)CN2C(=O)/C(=C/C=C/c3ccccc3)SC2=S)cc1	inactive
Nc1cccc(C(=O)OCC(=O)c2ccccc2)c1	inconclusive [activator, partial curve, poor fit]
CC1CN(C(=S)Nc2ccc(Br)cc2)CC(C)O1 (configuration not stated)	inactive
COc1ccc(NC(=O)C2CCN(S(=O)(=O)c3ccc4c(c3)NC(=O)C(C)S4)CC2)cc1 (configuration not stated)	inactive
Cc1ccc(N(C(=O)NC2CCCCC2)C2=NCCCCC2)cc1	inconclusive [activator, full curve, poor fit]
O/N=C/c1ccc2cccc(O)c2n1	inactive
CN1CCN(C(=O)CCC(=O)NCc2ccc(F)cc2)CC1	inconclusive [activator, single point]
O=C(Nc1ccon1)c1sc2cc(F)ccc2c1Cl	inconclusive [activator, full curve, poor fit]
CCOc1ccc(-c2csc(NC(=O)c3ccc(S(=O)(=O)N4CCc5ccccc5C4)cc3)n2)cc1	inactive
CCOCCCn1c(=N)c(S(=O)(=O)c2ccccc2)cc2c(=O)n3cc(C)ccc3nc21	inactive
Cc1ccccc1C(=O)NNC(=S)NC(=O)c1ccccc1	inconclusive [activator, partial curve, poor fit]
CCOC(=O)c1ccc(Nc2nc(=O)c3cccnc3s2)cc1	inactive
CN(C(=O)c1ccccn1)c1nnc(-c2ccccn2)s1	inconclusive [activator, partial curve, poor fit]
COC(=O)c1c(NC(=S)NC(=O)c2ccco2)sc2c1CCCC2	inactive
C=CCNc1ncnc2c1cnn2-c1ccc(OC)cc1	inconclusive [activator, partial curve, poor fit]
Cn1c(SCC(=O)c2ccccc2)nnc1-c1cccc(N)c1	inconclusive [activator, full curve, poor fit]
O=C(NCc1cccnc1)c1ccc(COc2ccc3c(c2)CCC3)o1	inactive
CN1CCN(c2ccc(NC(=O)N3CCc4ccccc43)cc2)CC1	inconclusive [activator, full curve, poor fit]
Cc1ccc(-c2cc(-c3ccccc3)nc(Cl)n2)cc1	inactive
COc1ccc(/C=C/C(=O)c2cc(Br)ccc2O)cc1OC	inactive
COc1cc(Cl)ccc1OCc1cc(C(=O)N2CC[C@@H]3CCCC[C@H]3C2)no1	inconclusive [activator, partial curve, poor fit]
COCCNC(=O)CCC1CCN(Cc2cccc(Oc3ccccc3)c2)CC1	inconclusive [activator, partial curve, poor fit]
CCC(=O)Nc1ccc(N2CCCCC2)cc1	inactive

Structure (SMILES)	Potency
C[C@@H]1NC(=O)c2cc([N+](=O)[O-])cc(I)c2OCC[C@@H](C(N)=O)NC(=O)[C@H](CCCCN)NC1=O	inactive
Cc1ccccc1-c1nnn(Cc2ccc(F)cc2Cl)n1	inconclusive [activator, partial curve, poor fit]
O=C(CSc1nnc(-c2ccc(O)cc2)o1)Nc1ccccc1	inconclusive [activator, partial curve, poor fit]
CC1CCCCN1C(=O)c1cc(-c2ccc(Cl)c(Cl)c2)on1 (configuration not stated)	inconclusive [activator, partial curve, poor fit]
Cc1cccc(N2CCN(C(=O)c3ccc4ncsc4c3)CC2)c1C	inconclusive [activator, full curve, poor fit]
CC(C)Oc1cccc(C(=O)NC2=NCCS2)c1	inconclusive [activator, partial curve, poor fit]
O=c1c2ccccc2nc(/C=C/c2ccc([N+](=O)[O-])cc2)n1CCCO	inactive
O=C(COC(=O)c1ccccn1)NCc1ccccc1	inconclusive [activator, single point]
O=C(CNc1cccc(C(F)(F)F)c1)N/N=C/C1CCCCC1	inactive
O=C(CCn1c(=S)[nH]c2ccccc2c1=O)N1CCOCC1	inconclusive [activator, partial curve, poor fit]
O=C(Nc1ccccc1)C1CC(=O)N(Cc2ccccc2)C1 (configuration not stated)	inactive
C=CCn1c(CSc2ccc(C)cc2)n[nH]c1=S	inactive
O=C(Nc1ccccc1)C(=O)c1cn(CC(=O)N2CCCCC2)c2ccccc12	inconclusive [activator, partial curve, poor fit]
Cc1cccc2nc(C(=O)Nc3cccc(C(=O)NC4CC4)c3)cn12	inconclusive [activator, full curve, poor fit]
O=C(CCC(=O)Nc1cccc(Cl)c1)N/N=C/c1cc([N+](=O)[O-])ccc1O	inactive
COc1cc(OC)cc(-c2nnc(SCc3c(F)cccc3Cl)o2)c1	inactive
Cc1cc(N2CCCCCC2)nc(-c2ccccc2O)n1	inactive
COc1ccccc1C(=O)COC(=O)COc1cccc2c1OC(C)(C)C2	inconclusive [activator, partial curve, poor fit]
COc1ccc(OCC(=O)N2CCN(c3cccc(C(F)(F)F)c3)CC2)cc1	inactive
Cc1ccc(-c2csc(NC(=O)c3cccs3)n2)cc1	inconclusive [activator, partial curve, poor fit]
COC(=O)c1ccc(OCC(=O)c2ccccc2)cc1	inconclusive [activator, partial curve, poor fit]
CN(C)c1nc(-c2ccccc2)nc(-c2ccc(Cl)cc2)c1C#N	inactive
O=C(CNC(=O)c1ccccc1)c1ccccc1	inconclusive [activator, full curve, poor fit]
CCc1ccc(NC(=O)CSCCO)cc1	inconclusive [activator, partial curve, poor fit]
